Results: paper PMC10612037 (Viruses, 2023)

What was measured:
[1] = tested on: HIV-1 RT mutants; conditions: cited from earlier work
[2] = tested on: HIV-1 RT; parameters: method as in ref 20 = [20]; conditions: M184V RT; cited from earlier work
[3] = tested on: HIV-1 xxLAI (wildtype, K65R, M184V); assay type: cell-based
[4] = tested on: HIV-1 isolates B, C, CRF_AE, CRF_AG; assay type: cell-based; conditions: for resistance of mutant: K65R/M184V in clinical isolates
[5] = tested on: HIV-1 NL4-3; assay: Dose-response assay in TZM-GFP cells, NL4-3 molecular clones with RT mutations
[6] = tested on: SIV; parameters: method as in ref 12 = [12]; conditions: SIV with M184V mutation present in ISL-treated rhesus macaques; cited from earlier work
[7] = tested on: HIV-1 reverse transcriptase (endogenous RT in virions); assay: Endogenous reverse transcriptase assay; assay type: biochemical; conditions: M184V virions
[8] = K65R virus, TDF:ISL 1:1 combination
[9] = K65R virus, TDF:ISL 10:1 combination
[10] = K65R virus, TDF:ISL 100:1 combination
[11] = M184V virus, TDF:ISL 1:1 combination
[12] = Wildtype virus, TDF:ISL 1:1 combination
[13] = Wildtype virus, TDF:ISL 10:1 combination
[14] = Wildtype virus, TDF:ISL 100:1 combination (initial combination only)

Row | Compound | fold resistance ([1]; M184V/I) | final drug concentration the virus escaped from [3, 8] [nM] | final drug concentration the virus escaped from [3, 9] [nM] | final drug concentration the virus escaped from [3, 10] [nM] | final drug concentration the virus escaped from [3, 11] [nM] | final drug concentration the virus escaped from [3, 12] [nM] | final drug concentration the virus escaped from [3, 13] [nM] | final drug concentration the virus escaped from [3, 14] [nM] | fold resistance relative to respective WT (EC50) ([4]; CRF_AG K65R/M184V) [fold] | resistance of mutant [4] | fold resistance relative to respective WT (EC50) ([4]; isolate B K65R/M184V) [fold] | fold resistance relative to respective WT (EC50) ([4]; isolate C K65R/M184V) [fold] | fold resistance relative to WT (EC50 fold change) ([5]; NL4-3 K65R/M184V) [fold] | other results
1 | Nc1ccn([C@@H]2CS[C@H](CO)O2)c(=O)n1 [3TC, lamivudine] | > 100 fold | – | – | – | – | – | – | – | – | – | – | – | – | –
2 | Nc1nc(=O)n([C@@H]2CS[C@H](CO)O2)cc1F [FTC, emtricitabine] | > 100 fold | – | – | – | – | – | – | – | – | – | – | – | – | –
3 | C#C[C@]1(CO)O[C@@H](n2cnc3c(N)nc(F)nc32)C[C@@H]1O [ISL, 4′-ethynyl-2-fluoro-2′-deoxyadensine] | ~ 8 fold | 7.2 | 7.2 | 3.6 | 130 | 14.4 | 14.4 | 3.6 | 4.5 | mild resistance | 1.4 | 3 | 3 | fold resistance relative to wildtype RT [2]: 8 fold; fold resistance ([1]; A114S/M184V mutant): 25 fold; fold resistance relative to wildtype (EC50) ([4]; CRF_AE K65R/M184V with Ser68): 3.5 fold; fold resistance relative to respective WT (EC50) ([4]; CRF_AE M184V (native Gly68)): 3 fold; fold resistance relative to wildtype (EC50) ([4]; CRF_AE M184V with Ser68): 3.5 fold; fold resistance relative to respective WT (EC50) ([4]; CRF_AG M184V): 8 fold; fold resistance relative to respective WT (EC50) ([4]; isolate B M184V): 3.5 fold; fold resistance relative to respective WT (EC50) ([4]; isolate C M184V): 9.5 fold; fold resistance relative to WT (EC50 fold change) ([5]; NL4-3 M184V): 7 fold; fold resistance relative to WT (EC50 fold change) ([5]; NL4-3 S68G/M184V): 6 fold; fold resistance relative to WT (EC50 fold change) ([5]; NL4-3 S68N/M184V): 12 fold; viral suppression [6]: fully suppressed
4 | C#C[C@]1(COP(=O)(O)OP(=O)(O)OP(=O)(O)O)O[C@@H](n2cnc3c(N)nc(F)nc32)C[C@@H]1O [ISL-TP] | – | – | – | – | – | – | – | – | – | – | – | – | – | resistance phenotype (IC50 fold change from WT) [7]: conferred resistance
5 | CC(C)OC(=O)OCOP(=O)(CO[C@H](C)Cn1cnc2c(N)ncnc21)OCOC(=O)OC(C)C [TDF, Tenofovir disoproxil fumarate] | – | 7.2 | 72 | 360 | 130 | 14.4 | 144 | 360 | 1.5 | mild resistance | 3 | 2.7 | 2 | fold sensitivity ([1]; A114S/M184V mutant): 40 fold; fold resistance relative to respective WT (EC50) ([4]; CRF_AE K65R/M184V (native Gly68)): 5.2 fold; susceptibility of mutant relative to WT ([4]; M184V, regardless of the isolate): as susceptible to TDF as WT; fold more sensitive than WT (EC50) ([5]; NL4-3 M184V): 2 fold; susceptibility of mutant ([5]; NL4-3 S68G/M184V): susceptible; susceptibility of mutant ([5]; NL4-3 S68N/M184V): susceptible

Structures can show the parent of a compound that is named as a salt. Where two headings read alike, the source gives them in different places.
